# From the supplement of paper PMC3334620
# Over roughly 33,000 sequences, “E-score (-0.5 to 0.5)” has its median near -0.016; the highest 2% begin near 0.32. Some of the results follow.
# Biological target: T1, Stp1 (UniProt B3LFK1)
# T1 sequence: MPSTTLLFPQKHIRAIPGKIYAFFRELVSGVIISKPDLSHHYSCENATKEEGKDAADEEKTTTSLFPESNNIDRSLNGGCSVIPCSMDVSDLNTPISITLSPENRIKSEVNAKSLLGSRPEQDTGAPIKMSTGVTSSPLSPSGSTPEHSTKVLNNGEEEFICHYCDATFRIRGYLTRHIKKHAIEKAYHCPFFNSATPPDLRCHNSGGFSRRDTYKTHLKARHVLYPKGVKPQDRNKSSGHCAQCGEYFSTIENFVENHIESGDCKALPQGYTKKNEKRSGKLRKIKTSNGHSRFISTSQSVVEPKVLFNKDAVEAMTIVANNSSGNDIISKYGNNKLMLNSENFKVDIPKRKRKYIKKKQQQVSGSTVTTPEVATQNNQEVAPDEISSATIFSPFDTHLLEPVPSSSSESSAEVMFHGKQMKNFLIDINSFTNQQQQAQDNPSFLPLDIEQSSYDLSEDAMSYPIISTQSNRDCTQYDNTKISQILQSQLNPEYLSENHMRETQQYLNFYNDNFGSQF
# Assay: PBM E-score (8-mer binding enrichment) (E-score (-0.5 to 0.5)); higher = stronger / more preferred TF binding; most listed sequences are background and not binding sites
# Settings: protein concentration: 200 nM; construct: GST-full length
# Method in brief: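 Universal all-10-mer Agilent arrays, fresh or stripped once, were converted to double-stranded form by primer extension. GST-tagged yeast transcription factors from PURExpress in vitro transcription/translation, full-length or DNA-binding domain only, were applied at about 100-200 nM and detected with fluorescent anti-GST. After masliner normalisation, the Universal PBM Analysis Suite scored each ungapped eight-base word together with its reverse complement by E-score.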
row,Sequence,PBM E-score
1,CTCTGCAC,-0.0925
2,CCGCTATC,0.0315
3,CGTCCCCA,-0.199
4,GGATTTGA,0.014
5,ACGGGGGA,-0.267
6,ACGACCCG,-0.109
7,CCATCGCC,0.0827
8,CACGGTGC,0.212
9,CCTATACA,-0.0311
10,AAAGCGAC,-0.135
11,ATAAAAAG,0.262
12,GGGAATAA,0.135
13,ACTGGGCC,-0.13
14,AACGGTGC,0.183
15,CGAACCTC,-0.0892
16,AAGTGGAA,-0.0493
17,CAGCCTTA,-0.21
18,CCCAAACC,-0.124
19,CAATAATA,0.19
20,ACCGCACC,0.0883
21,AACCATAA,0.0889
22,GGAGTGAA,-0.0852
23,GTGTCGGA,-0.0814
24,TCATTCAA,0.0509
25,AGGTGTTG,-0.0681

row,Sequence,PBM E-score
1,TAGAAGCA,0.112
2,AGCTGAAG,-0.16
3,AGCACCGC,-0.123
4,CTAGCAGA,0.0464
5,AATCAAGG,0.0369
6,CCCGGCAC,-0.0313
7,CCCAAGTA,-0.205
8,GTACGCAA,-0.0317
9,CTGAGGGA,-0.253
10,GCAGTTTA,-0.0702
11,ATTTAAAA,0.224
12,ATTGTGAC,-0.0171
13,GTCAAGAA,0.0171
14,CGCACACG,0.0837
15,AGAGTCTA,-0.189
16,GGGACCTA,-0.16
17,GTCTTCTA,-0.00913
18,CGCTTTGC,0.209
19,CACACGCC,0.17
20,AGGCGCAT,0.241
21,AGTCACGG,0.0206
22,CTAATTCC,-0.0993
23,CATGGTCA,0.103
24,GCGTAGCC,-0.0921
25,CACCTAAA,0.0147

row,Sequence,PBM E-score
1,AAGCAGTA,-0.176
2,ATCGAGAA,0.0847
3,AGGAGGTG,-0.174
4,ACAAGCTG,0.0431
5,CGAGATCC,-0.109
6,AGAAAGGG,0.0223
7,GGCTAATA,0.0747
8,CAAGCGCG,0.124
9,CTGGCAGC,-0.105
10,ACGCGTCC,-0.153
11,AGCATTTA,0.0812
12,CGGATCCC,-0.153
13,AGACTTGC,-0.2
14,ACAATGGC,0.0235
15,GTACTGAA,0.212
16,CTGGCCGA,-0.177
17,AAGCCCAC,-0.119
18,CTTCGCCA,0.0506
19,ACCGCCAT,0.0869
20,GATTCGCA,0.0922
21,ACCATGCA,-0.141
22,CAATCATG,0.0546
23,AGTTCTGG,-0.121
24,GCGAGACA,-0.185
25,CAATCATC,-0.178

row,Sequence,PBM E-score
1,GACCCGAA,-0.251
2,CCTAAGGC,-0.101
3,ACGTCCCG,-0.153
4,CAAAATCG,0.183
5,GATTACCC,0.0751
6,GATAGGCC,-0.259
7,CAACTCCC,0.148
8,AAGTTCAC,0.01
9,CGCTTCGC,-0.0121
10,CCGACAAA,0.0507
11,CCGAGAAG,-0.194
12,CCTGGCGC,0.0915
13,AGTTCACG,-0.0925
14,CCTGTCTA,-0.0566
15,CGCAAGTA,0.0487
16,AACCGAAC,-0.0587
17,CCGCTCGA,0.191
18,ATAGTGTC,-0.00831
19,CGGTGAGC,-0.198
20,CCTCGTGA,0.126
21,ATTCACGG,0.21
22,GTTAAGAA,0.0825
23,AGCTAGTG,-0.194
24,TGTTATAA,0.138
25,GCGGAGAA,-0.0384

row,Sequence,PBM E-score
1,AATGGACA,0.102
2,CAACCCAC,0.0457
3,AACCCAAT,0.0153
4,CCCTGTAC,-0.211
5,ATTTCTTG,0.161
6,GTAAGCCA,-0.244
7,AAGCGGAA,0.0259
8,CATCATGC,0.205
9,ACAAGGTC,-0.159
10,ATCCATCC,-0.0688
11,GACGCAAC,-0.0448
12,AAGTCCAT,-0.176
13,CTCTCGGA,-0.103
14,CCTCGAAC,-0.142
15,GAGCCACC,-0.266
16,ATGCAAAA,0.199
17,TCTGAAAA,0.101
18,CATATAAA,0.223
19,CGGATCTC,-0.0599
20,CATCACCG,-0.0719
21,GCACTTCA,0.134
22,GAGTTACA,0.0484
23,ATATTCTC,0.03
24,CATATGAC,0.111
25,CCCATCCG,-0.163

row,Sequence,PBM E-score
1,CCCATATA,-0.0294
2,GGGACACA,-0.202
3,AGTGAAAC,-0.00865
4,CATTATGC,0.0672
5,ATCGCATG,0.00857
6,ACCCTCAG,-0.274
7,GCGAGCGA,0.126
8,AAGATACT,-0.0628
9,AATGTGGC,0.158
10,ACGACAGC,-0.0232
11,CGATTAAG,0.166
12,CACCCTAG,-0.172
13,AATAGATT,0.0699
14,ATCTGACG,-0.148
15,CGTATAAG,-0.0244
16,ATAATGTG,0.0627
17,AGCCGTGA,0.343
18,ACGCCCTA,0.127
19,ACAGTTAA,0.0767
20,AGTTGCGG,0.0205
21,ATGGAACG,-0.0659
22,AGTTAATC,0.0657
23,AGTCAACG,-0.173
24,GAAAACAC,0.105
25,GCACCAAA,0.257

row,Sequence,PBM E-score
1,ATCCAGAC,0.0241
2,AGAGGTGA,-0.228
3,CTTAGTAC,0.17
4,GTGTTCCA,-0.189
5,CCAAGTTC,-0.268
6,CGGCCCTA,0.161
7,GCACCAGC,-0.164
8,GTAAACTA,0.11
9,GCCGCTCA,0.381
10,TCTTACAA,-0.135
11,ATTAGGAC,-0.0811
12,ACGGGAGG,-0.18
13,CAACGAAA,0.211
14,GTTAATCA,0.187
15,CCCCGCGC,0.242
16,GCCCGGGA,-0.199
17,ACCACCCT,-0.23
18,ATCGGCAC,0.297
19,CTATGGGC,-0.102
20,AACACTTC,-0.112
21,GCTTGTCA,0.0363
22,CTCCCACA,-0.188
